Among all 1,300 compounds or so, about 120 (9.2%) were called active. The inconclusive results got no clear call from the source; some entries with a clear call stand among them for comparison. Calls come from the whole dose curve; as a rule, active = well fitted activation curve with a large enough effect; inconclusive = small, poorly fitted or top-dose-only effect; inactive = flat fitted curve, though single readings scatter. Where the call is inconclusive, the potency comes from a doubtful curve fit.
target: Luciferin 4-monooxygenase (Photinus pyralis) (UniProt P08659); experiment: Firefly luciferase (FLuc-C-HiBiT) SDR gain of signal screen - plus ATP; settings: purified FLuc-C-HiBiT + ATP, HiBiT complementation luminescence; series mostly up to 32.7 µM; activation (gain of signal): at the top concentration;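 note: signal reports ligand binding via conformational change of the enzyme rather than luciferase catalysis; nearly all actives have a fitted effect of over 55% in size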; for activation (gain of signal): % of control where 0% means no effect
Outline: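 Luminescence read-out of HiBiT complementation (structural dynamics response): enzyme at 10 nM final, 10 uM ATP, compound preincubation >30 min at RT, then Nano-Glo HiBiT detection for 5-10 min before CCD imaging with 1 sec exposure.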
Potency is the fitted concentration of half-maximal effect; tags give direction and shape of the fitted curve.

UniProt P08659, sequence (P08659 whole entry, looked up): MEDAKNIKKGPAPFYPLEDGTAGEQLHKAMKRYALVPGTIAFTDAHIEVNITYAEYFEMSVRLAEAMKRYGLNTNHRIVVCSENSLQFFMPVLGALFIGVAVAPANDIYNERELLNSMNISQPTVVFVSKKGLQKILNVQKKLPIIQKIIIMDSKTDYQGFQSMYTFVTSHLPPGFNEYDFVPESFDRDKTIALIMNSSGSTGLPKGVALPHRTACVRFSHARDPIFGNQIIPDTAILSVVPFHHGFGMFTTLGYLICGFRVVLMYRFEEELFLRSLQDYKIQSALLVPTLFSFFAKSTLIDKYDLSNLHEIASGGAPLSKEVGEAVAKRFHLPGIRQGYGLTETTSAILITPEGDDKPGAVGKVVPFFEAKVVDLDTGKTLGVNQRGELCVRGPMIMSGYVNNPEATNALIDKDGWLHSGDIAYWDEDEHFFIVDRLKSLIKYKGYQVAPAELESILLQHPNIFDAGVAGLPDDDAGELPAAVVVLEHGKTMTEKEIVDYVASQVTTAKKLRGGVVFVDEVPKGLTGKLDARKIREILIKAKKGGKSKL

Activation (gain of signal), inactive:
CN1CC(=O)N(C2CCCC2)Cc2c1ncnc2N1CCOCC1 8.32% [at 49.3 µM]
COc1ccc(CN2C[C@H](O)C[C@H]2c2nc(-c3ccc(OC)cc3)no2)cc1 1.33% [at 49.3 µM]
O=C(Nc1ccccc1C(=O)O)c1ccccc1 10.1%
Cc1c(NC(=O)c2ccc(I)o2)cccc1-c1nc2ccccc2s1 13.3%
COc1cccc(CNc2nc3ccccc3c3nc(-c4cccc(C)c4)nn23)c1 13.4%
O=C(Nc1ccc2c(c1)OCCO2)N1CCC(c2nc(C3CCOCC3)no2)CC1 15.3%
O=C(C1CCC1)N1c2ccccc2CC1c1noc(C2CCOCC2)n1 (centres undefined) 18.5%
O=C1Nc2ccc(C(=O)c3ccco3)cc2/C1=C/c1cc(Cl)c(O)c(Cl)c1 4.13%
CCCc1ccc2oc(C(=O)NCCc3nncn3CC)c(C)c2c1 15.2%
COc1ccc(-c2cc3c(cn2)CN(C(C)=O)CCN3)cc1 18.1% [at 49.3 µM]
Cc1ncc(C(=O)NCc2ccc3[nH]c(-c4ccccc4F)c(C)c3c2)c(C)n1 13.5%
COc1ccc(-c2nc(C)c(CCNC(=O)c3c(F)cccc3F)s2)cc1 15.4%
CC(C)(C)c1ccc(C(=O)Nc2ccc([C@H]3OCC(=O)N[C@@H]3CO)cc2)cc1 15.6% [at 49.3 µM]
CN1CCN(c2ccc(-c3cc4c(ccn4C)c(C(=O)NCCN4CCNC4=O)n3)cc2)CC1 16%
COC(=O)c1ccc2c(c1)/C(=C/c1cc(Br)c(O)c(Br)c1)C(=O)N2 2.39%
O=C(c1ccccn1)N1CCC(Oc2ccc(-c3noc(-c4ccccc4)n3)cc2)C1 (centres undefined) 13.7%
COc1cccc(C(=O)Nc2cccc(OCc3cc(=O)n4c5c(sc4n3)CCCC5)c2)c1 11%

Potency, inconclusive:
Cc1ccc(-c2nc(C(=O)N3CCN(c4ccccn4)CC3)no2)cc1 9.89 µM [activator, partial curve, poor fit]
Cc1ccc(NC(=O)Nc2ccc(C)n(CC(=O)NCC(C)C)c2=O)cc1 4.95 µM [activator, partial curve]
O=C(c1cc2ccc3cccnc3c2[nH]1)N1CCCCC1 8.81 µM [activator, partial curve]
Clc1ccc(-c2nc(-c3ccccn3)no2)cc1Cl 11.1 µM [activator, partial curve]
COc1ccc(-n2ncc3c(NC4CCCC4)ncnc32)cc1 6.24 µM [activator, partial curve]
O=C(NCc1ccccc1)C1CCN(C(=O)c2ncn3c2COC(c2ccccc2)C3)CC1 (centres undefined) 1.57 µM [activator, full curve]
COC1CCOC2(CCN(C(=O)CCCc3ccccc3)CC2)C1 (centres undefined) 14 µM [activator, partial curve, poor fit]
O=C(NCCc1ccccc1Cl)c1ccc2c(c1)nc1n2CCOC1 9.89 µM [activator, partial curve]
COc1ccc(-c2cc(=O)c3cc(OCC(=O)OC(C)C)ccc3o2)cc1 14 µM [activator, partial curve, poor fit]
N#Cc1c(-n2ncnc2-c2cccc(Br)c2)sc2c1CCCCC2 2.48 µM [activator, full curve, poor fit]
c1ccc(Nc2ncc(-c3ccccc3)o2)cc1 3.94 µM [activator, full curve]
CC(Cn1cccn1)Nc1ccc(-c2nc(-c3ccccc3F)no2)cn1 (centres undefined) 14 µM [activator, partial curve, poor fit]
O=C(Nc1cnc(-c2ccc(Cl)cc2)nc1)C1CCC1 2.21 µM [activator, full curve]
O=C(NCc1ccccc1F)C1CCN(C(=O)c2ncn3c2COC(c2ccccc2)C3)CC1 (centres undefined) 3.94 µM [activator, partial curve]
CCOc1ccc(-c2cc(CCCC(=O)NCCc3ccc(SC)cc3)no2)cc1 6.24 µM [activator, partial curve]
Cc1cc(-c2nc3cc(F)ccc3s2)ccc1N 12.4 µM [activator, partial curve]
CCOC(=O)N1CCc2c(sc(NCc3cccc(F)c3)c2C(=O)Nc2ccc(OC)cc2OC)C1 4.95 µM [activator, partial curve]
Cc1cc(NC(=O)c2ccc(CN3CC[C@H](O)C3)cc2)ccc1F 5.56 µM [activator, partial curve, poor fit]
CCc1ccc(NC(=O)N2CCCC(c3noc(COc4ccccc4)n3)C2)cc1 (centres undefined) 4.42 µM [activator, partial curve, poor fit]
Cc1ccc(NC(=O)c2ccc3c(c2)N(C)C2CCCN2C3=O)cc1C (centres undefined) 12.4 µM [activator, partial curve]
OCc1ccnc(-c2ccc(-c3ccn[nH]3)cc2)c1 12.4 µM [activator, partial curve]
CC(=O)c1cccc(NC(=O)c2nc3ccccc3n(C)c2=O)c1 8.81 µM [activator, partial curve]

Potency, active:
CCNc1cc(N2CCC(CCC(=O)O)CC2)ncn1 9.89 µM
O=C(O)c1ccc(-c2noc(-c3ccc(F)cc3)n2)cc1 0.556 µM
COc1ccc(NC(=O)N2CCc3c(C(=O)NCCCN4CCCC4=O)cccc32)cc1 0.351 µM
CN(C(=O)OC(C)(C)C)c1ccc(-c2nc3ccccc3s2)cc1 0.351 µM
O=C(NCCc1cccnc1)c1cccc2c1CCN2C(=O)Nc1ccc(F)cc1 0.351 µM
CCCCNC(=O)c1cccc2c1CCN2C(=O)Nc1ccccc1 1.97 µM
CN(c1ccccc1)c1ccc2ncn(C3CC3)c(=O)c2n1 7.15 µM
Cc1ccc(NC(=O)N2CCc3c(C(=O)NCc4ccco4)cccc32)cc1 0.0785 µM
Cc1c(C(=O)Nc2ccc(C(=O)O)cc2)nnn1-c1ccccc1 0.0785 µM
CCOc1ccccc1CNC(=O)C1CCN(C(=O)c2ncn3c2COC(c2ccccc2)C3)CC1 (centres undefined) 2.21 µM

— PubChem BioAssay AID1963319 (National Center for Advancing Translational Sciences (NCATS), 2024)
